Values joined by “and” are separate entries in the source; they are usually repeats but may differ in a detail not shown here. Identical values can stand only once.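 Protocol summary: plate cells (96-well), add compound at 5 concentrations, incubate 48 h, interpolate endpoints linearly. Here, GI50 denotes the concentration required for 50% inhibition of growth. TGI is the concentration that stops growth completely.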
system: NCI-H322M lung; test: growth of human tumour cells (NCI), 48 h

| Compound | TGI | GI50 |
| --- | --- | --- |
| COC(=O)C1=C(CO)C2C=CC1C2 (centres undefined) | > 100 µM | – |
| C[C@@H]1C=C2C(=O)O[C@@H]3CC[C@H](C1)[C@]23O | 32.8 µM | 6.15 µM |
| CCCCn1c2c(n(CCCC)c1=S)-c1c(n(CCCC)c(=S)n1CCCC)SSSS2 | > 100 µM | – |
| O=[N+]([O-])c1nccn1COCCF | > 100 µM | – |
| COc1ccc([N+](=O)[O-])c(S(=O)(=O)c2ccc(Cl)cc2)n1 | 37.1 µM | 20.4 µM |
| OC1CN2CCS[C@H]2C(O)C1O (some centres undefined) | > 100 µM | – |
| O=S(CCCl)c1c2ccccc2nc2ccccc12 (centres undefined) | > 100 µM | – |
| C=C(C)[C@@H]1CC[C@]2(C)[C@H](CC[C@@H]3[C@H]4[C@H]5OC[C@@]4(CCC5(C)C)CC[C@]32C)[C@@]1(C)CCCN | 3.17 µM | 1.75 µM |
| CCOC(=O)c1[nH]c2ccccc2c1C(=O)C[C@H](NC(=O)C(F)(F)F)C(=O)OC | > 100 µM | – |
| COc1cc([N+](=O)[O-])ccc1NC1=CC(=O)CCC1 | > 100 µM | – |
| COC(=O)CCC/C=C\C[C@H]1C=CC(=O)/C1=C/C[C@@H](O)C/C=C\CC(F)(F)F | 11 µM | 3.25 µM |
| O=[N+]([O-])O.[Ga] | > 10000 µM | – |
| C[C@@]12CCC(=O)C=C1CC[C@H]1C2=CC[C@]2(C)C1CC[C@@]2(C)O (some centres undefined) | > 100 µM | – |
| CC(C)n1c2c([n+](C)c1/C=C/c1ccccc1)C(=O)c1ccccc1C2=O | 1.93 µM | – |
| O=C(OCC1OC(c2nn[nH]n2)C(OC(=O)c2ccccc2)C1OC(=O)c1ccccc1)c1ccccc1 (centres undefined) | > 100 µM | – |
| CC#C[I+]c1ccccc1 | > 100 µM | – |
| COc1ccc(O)c(C=NCCCN=Cc2cc(OC)ccc2O)c1 | 62.4 µM | – |
| Cc1[nH]c(=O)[nH]c(=O)c1CO | > 100 µM | > 100 µM |
| O=c1c2ccccc2c2nc3ccccc3nc2n1C1CCCCC1 | > 100 µM | – |
| c1ccc2c(c1)Nc1nc3nonc3nc1N2 | > 100 µM | – |
| CC(C)=CC(=O)Cc1nc2cc(C)c(C)cc2[nH]c1=O | > 100 µM | – |
| Cc1nc(NC(=O)CCCN2C(=O)c3cccc4cccc(c34)C2=O)sc1C(=O)Nc1cc(C(=O)NCCCN(C)C)n(C)c1 | > 100 µM | > 100 µM |
| COC(=O)CCn1cnc2c(SC)ncnc21 | > 100 µM | – |
| NCCNC(=S)S | > 100 µM | – |
| COc1ccc(C(c2c(O)c3ccccc3n(C)c2=O)c2c(O)c3ccccc3n(C)c2=O)cc1 | > 100 µM | – |
| COc1ccccc1Cn1nc(OC)c2cc([N+](=O)[O-])ccc21 | > 100 µM | – |
| CS(=O)(=O)Nc1ccc(Nc2c3ccccc3nc3ccccc23)cc1 | 28 µM | – |

| Compound | TGI | GI50 |
| --- | --- | --- |
| COc1cc2c(c3c1c(=O)c1ccccc1n3C)C=CC1(CCCCC1)O2 | > 10 µM | – |
| Cc1ccc(C)c(NC(=O)CC/C(=N\NC(=O)C(N)=O)C(C)C(=O)c2ccc(O)cc2)c1 (centres undefined) | > 100 µM | – |
| NCCC(O)(P(=O)(O)O)P(=O)(O)O | > 100 µM | > 100 µM |
| CCOC(=O)NC(NC(C)CC)(C(F)(F)F)C(F)(F)F (centres undefined) | > 100 µM | – |
| CCOC(=O)c1cn(Cc2ccccc2)c(=O)n1Cc1ccccc1 | > 100 µM | – |
| CCOC(=O)c1c(-c2ccc(OC)cc2)c(C#N)c(=S)n(C2OC(CO)C(O)C(O)C2O)c1-c1ccccc1 (centres undefined) | > 100 µM | – |
| NCc1nnn(Cc2ccccc2)c1N | > 100 µM | – |
| COC(=O)[C@]1(C)CCC[C@@]2(C)C1CCC1=CC3(C(C)C)CCC12OO3 (some centres undefined) | > 100 µM | – |
| COc1cc(-c2cc(-c3nc4ccc(Cl)cc4[nH]3)[nH]n2)cc(OC)c1OC | 14.7 µM | 3.65 µM |
| N#CC1=C(N)OC(c2ccc([N+](=O)[O-])cc2)C1(C#N)C#N (centres undefined) | 38.1 µM | – |
| OCCN(CCO)c1ccc2c(c1)Cc1ccccc1-2 | > 100 µM | – |
| O=C(NC1=NC2C=CC([N+](=O)[O-])=CC2S1)C(=O)Nn1c(=S)[nH]c2ccccc2c1=O (centres undefined) | > 100 µM | – |
| COc1cc([C@@H]2c3[nH]c4ccccc4c3C(Nc3ccc([N+](=O)[O-])cc3)[C@H]3COC(=O)N23)cc(OC)c1O (some centres undefined) | > 31.7 µM | – |
| Cn1c(-c2ccc(/C=N\N3CCN(/N=C/c4ccc(-c5c[n+]6ccsc6n5C)cc4)CC3)cc2)c[n+]2ccsc12 | > 100 µM | – |
| N#Cc1cc([N+](=O)[O-])ccc1NC(=O)C(=O)C(C(=O)/C=C/c1ccccc1)C1OC(=O)c2ccccc21 (centres undefined) | > 100 µM | – |
| O=C(OC(=C(c1ccccc1)c1ccccc1)N1CCCC1=S)C(c1ccccc1)c1ccccc1 | > 10 µM | – |
| COc1ccc2[nH]c3c(c2c1)COc1ccccc1C3=O | > 100 µM | – |
| NC1=N/C(=C2/CCNC(=O)c3[nH]c(Br)cc32)C(=O)N1 | > 100 µM | 12.6 µM and 38.3 µM |
| O=c1[nH]nc(Cc2ccc(Cl)cc2)n1/N=C\CC/C=N\n1c(Cc2ccc(Cl)cc2)n[nH]c1=O | > 100 µM | – |
| c1cncc(-c2ncc3cccnc3n2)c1 | > 100 µM | – |
| O=[N+]([O-])c1cc(Cl)cc2cc(Cl)cnc12 | > 100 µM | – |
| CCCc1nc2c(C)cc(-c3nc4ccccc4n3C)cc2n1Cc1ccc(-c2ccccc2C(=O)O)cc1 | > 100 µM | > 100 µM |
| COc1nc2sc3c(c2c(=O)n1CCCSSCCCn1c(OC)nc2sc4c(c2c1=O)CCCC4)CCCC3 | > 100 µM | – |
| COc1cc(/C=C2\COc3ccc(O)c(O)c3C2=O)cc(OC)c1 | 11.9 µM | 2.65 µM |
| CCOC(=O)CCC(NC(=O)c1ccc(OCc2nc3ccccc3n3cccc23)cc1)C(=O)OCC (centres undefined) | > 100 µM | – |
| C=C1c2nc3ccccc3n2C=C(c2ccccc2)N1c1ccccc1 | > 100 µM | – |
